Here are results for 56 molecules from patent US20250214977A1, “STAT6 INHIBITORS AND USES THEREOF” (Kymera Therapeutics, Inc., priority 2024, published 2025).

Bounds are passed on as bounds.

A word on the IC50: it is the point on the concentration scale where inhibition reaches its midpoint. Low readings indicate greater potency in that assay, high ones weaker potency in that assay.

The assay deals with T1, biotinylated truncated STAT6 (123-632)-avi (Homo sapiens, UniProt P42226).
T1 sequence (P42226 123-632 limits assumed): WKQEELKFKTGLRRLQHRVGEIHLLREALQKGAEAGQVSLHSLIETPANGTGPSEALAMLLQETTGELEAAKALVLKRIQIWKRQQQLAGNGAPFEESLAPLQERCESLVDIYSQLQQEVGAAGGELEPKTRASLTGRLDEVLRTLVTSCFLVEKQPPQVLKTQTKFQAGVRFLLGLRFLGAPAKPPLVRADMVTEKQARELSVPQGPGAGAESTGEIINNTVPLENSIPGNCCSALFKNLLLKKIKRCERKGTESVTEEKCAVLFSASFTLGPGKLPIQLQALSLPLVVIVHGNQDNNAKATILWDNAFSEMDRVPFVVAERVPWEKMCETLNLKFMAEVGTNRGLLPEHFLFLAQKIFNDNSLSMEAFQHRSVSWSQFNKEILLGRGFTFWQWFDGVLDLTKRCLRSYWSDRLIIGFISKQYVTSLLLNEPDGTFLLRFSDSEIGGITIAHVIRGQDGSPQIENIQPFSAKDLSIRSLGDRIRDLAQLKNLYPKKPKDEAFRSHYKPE
Put plainly: Homogenous Time-Resolved Fluorescence (HTRF) binding assay. As to conditions: 0.15 nM biotinylated truncated STAT6 (123-632)-avi, 20 nM fluorescein-labeled probe, 30 minutes room temperature. For orientation: Time-resolved FRET reads energy transfer from a long-lived donor to a nearby acceptor.

`CC(=O)N1CCC=C(c2cc(-c3ccnc4ccccc34)c3cc(C(=O)N(C)C)[nH]c3c2F)C1` [Example I-1578] had an IC50 of less than 100 nM.

`COc1ccc(-c2cc(C3=CCCN(C(C)=O)C3)c(F)c3[nH]c(C(=O)N(C)C)cc23)cc1` [Example I-1579] displayed an IC50 of 100 to 1000 nM.

`CC(=O)N1CCC=C(c2cc(-c3cc4ccccc4n3C)c3cc(C(=O)N(C)C)[nH]c3c2F)C1` [Example I-1580]: the half-inhibitory concentration (IC50) was 100 to 1000 nM.

For the molecule `CC(=O)N1CCC=C(c2cc(-c3ccccc3OC(F)F)c3cc(C(=O)N(C)C)[nH]c3c2F)C1` [Example I-1581], the concentration for half-maximal inhibition (IC50) is less than 100 nM.

Molecule `CCc1ccccc1-c1cc(C2=CCCN(C(C)=O)C2)c(F)c2[nH]c(C(=O)N(C)C)cc12` [Example I-1582] displayed an IC50 of 100 to 1000 nM.

With `CNCC1CCCN(C(=O)c2cc3c(-c4ccccc4OC)cc(C4=CCCN(C(=O)CCn5ccnn5)C4)c(F)c3[nH]2)C1` (centres unmarked) [Example I-1584], the IC50 was in the range of 100 to 1000 nM.

Turning to `Cc1c(C(=O)N(C)C)[nH]c2c(F)c(C3=CCCN(C(=O)CCn4ccnn4)C3)ccc12` [Example I-1586], the half-inhibitory concentration (IC50) was less than 100 nM.

`CN(C)C(=O)c1[nH]c2c(F)c(C3=CCCN(C(=O)CCn4ccnn4)C3)ccc2c1-c1ccccc1` [Example I-1587]: the IC50 lay in the range of 100 to 1000 nM.

The molecule `COc1ccccc1-c1cc(C2CCCN(C(=O)CCn3ccnn3)C2)c(F)c2[nH]c(C(=O)N(C)C)cc12` (centres unmarked) [Example I-1588] returned an IC50 of 1000 to 10000 nM.

Regarding `COc1cccc(-c2cc(C3=CCCN(C(C)=O)C3)c(F)c3[nH]c(C(=O)N(C)C)cc23)c1` [Example I-1589], the IC50 was in the range of 100 to 1000 nM.

On to `CC(=O)N1CCC=C(c2cc(-c3ccccc3)c3cc(C(=O)N(C)C)[nH]c3c2F)C1` [Example I-1590], for which the concentration for half-maximal inhibition (IC50) fell in the range of 100 to 1000 nM.

`CC(=O)N1CCC=C(c2cc(-c3cc4ccccc4[nH]3)c3cc(C(=O)N(C)C)[nH]c3c2F)C1` [Example I-1591] registered an IC50 of 100 to 1000 nM.

Molecule `COc1ccccc1-c1cc(C2=CCCN(C(=O)CCn3ccnn3)C2)c(F)c2[nH]c(C(=O)N3CCC(N(C)C(C)=O)C3)cc12` (centres unmarked) [Example I-1592] had a half-inhibitory concentration (IC50) of 1000 to 10000 nM.

Molecule `COc1ccccc1-c1cc(C2=CCCN(C(=O)CCn3ccnn3)C2)c(F)c2[nH]c(C(=O)N3CCC(c4cccc(Cl)c4Cl)C3)cc12` (centres unmarked) [Example I-1593] registered an IC50 of 100 to 1000 nM.

`COc1ccccc1-c1cc(C2=CCCN(C(=O)CCn3ccnn3)C2)c(F)c2[nH]c(C(=O)N3CCC[C@H]3c3ccccn3)cc12` [Example I-1594]: the IC50 lay in the range of 100 to 1000 nM.

For `COc1ccccc1-c1cc(C2=CCCN(C(=O)CCn3ccnn3)C2)c(F)c2[nH]c(C(=O)N3CC(C)CC3CO)cc12` (centres unmarked) [Example I-1595], the IC50 lay within 100 to 1000 nM.

As to `COc1ccccc1-c1cc(C2=CCCN(C(=O)CCn3ccnn3)C2)c(F)c2[nH]c(C(=O)N3CCC[C@H](C(=O)N4CCCCC4)C3)cc12` [Example I-1596], the concentration for half-maximal inhibition (IC50) lay within 100 to 1000 nM.

The molecule `COc1ccccc1-c1cc(C2=CCCN(C(=O)CCn3ccnn3)C2)c(F)c2[nH]c(C(=O)N(CCO)Cc3cccc(Br)c3)cc12` [Example I-1597] registered an IC50 of 1000 to 10000 nM.

In turn, `Cc1ccccc1Oc1cc(C2=CCCN(C(=O)CCn3ccnn3)C2)c(F)c2[nH]c(C(=O)N(C)C)cc12` [Example I-1598] showed a 50% inhibitory concentration (IC50) of less than 100 nM.

On to `O=C1CN(C(=O)c2cc3cc(C4=CCCN(C(=O)CCn5ccnn5)C4)ccc3o2)c2ccccc2N1` [Example I-1600], for which the IC50 lay within 100 to 1000 nM.

`O=C(CCn1ccnn1)N1CCC=C(c2ccc3oc(C(=O)N4CCCC4)cc3c2)C1` [Example I-1601] had an IC50 of 1000 to 10000 nM.

On to `CC1CN(C(=O)c2cc3cc(C4=CCCN(C(=O)CCn5ccnn5)C4)ccc3o2)CC(=O)N1` (centres unmarked) [Example I-1602], for which the IC50 is 1000 to 10000 nM.

For `O=C(NCc1ccccc1CN1CCOCC1)c1cc2cc(C3=CCCN(C(=O)CCn4ccnn4)C3)ccc2o1` [Example I-1603], the IC50 is 100 to 1000 nM.

Molecule `O=C(CCn1ccnn1)N1CCC=C(c2ccc3oc(C(=O)N4CCCC5CCCCC54)cc3c2)C1` (centres unmarked) [Example I-1604] displayed a concentration for half-maximal inhibition (IC50) of 1000 to 10000 nM.

`O=C(CCn1ccnn1)N1CCC=C(c2ccc3oc(C(=O)N4CCC45CCCCC5)cc3c2)C1` [Example I-1605] had an IC50 of 1000 to 10000 nM.

Consider `O=C(CCn1ccnn1)N1CCC=C(c2ccc3oc(C(=O)N4CC5CCC4CC5)cc3c2)C1` [Example I-1606], for which the IC50 lay within 1000 to 10000 nM.

`CN(C)C(=O)c1cc2cc(C3=CCCN(C(=O)CCn4ccnn4)C3)cc(-c3ccc(-n4ccnn4)cc3)c2o1` [Example I-1607]: the 50% inhibitory concentration (IC50) was less than 100 nM.

Consider `CN(C)C(=O)c1cc2cc(C3=CCCN(C(=O)CCn4ccnn4)C3)cc(-c3cnn(-c4ccccc4)c3)c2o1` [Example I-1608], for which the 50% inhibitory concentration (IC50) lay in the range of 100 to 1000 nM.

In the case of `CN(C)C(=O)c1cc2cc(C3=CCCN(C(=O)CCn4ccnn4)C3)cc(-c3ccc(CO)cc3)c2o1` [Example I-1609], the half-maximal inhibitory concentration (IC50) is less than 100 nM.

On to `O=C(CCn1ccnn1)N1CCC=C(c2ccc3oc(C(=O)N4CCCC45CC5)cc3c2)C1` [Example I-1610], for which the IC50 is 1000 to 10000 nM.

With `CN(C(=O)c1cc2cc(C3=CCCN(C(=O)CCn4ccnn4)C3)ccc2o1)C1CC1` [Example I-1612], the IC50 was in the range of 100 to 1000 nM.

In turn, `O=C(CCn1ccnn1)N1CCC=C(c2ccc3oc(C(=O)N4CCn5ncnc5C4)cc3c2)C1` [Example I-1613] displayed an IC50 of 100 to 1000 nM.

In turn, `CN(C)C(=O)c1cc2cc(C3=CCCN(C(=O)CCn4ccnn4)C3)cc(-c3ccc(C(=O)N4CCCC4)cc3)c2o1` [Example I-1614] gave a 50% inhibitory concentration (IC50) of less than 100 nM.

The molecule `COc1ccccc1-c1cc(C2=CCCN(C(=O)CCn3ccnn3)C2)c(F)c2[nH]c(C(=O)N3CCCC3CO)cc12` (centres unmarked) [Example I-1615] came in with an IC50 of 100 to 1000 nM.

Take `COc1ccccc1-c1cc(C2=CCCN(C(=O)CCn3ccnn3)C2)c(F)c2[nH]c(C(=O)N3CCN(CCCO)CC3)cc12` [Example I-1616]: the IC50 was less than 100 nM.

For the molecule `CCn1ncc(CN(CCO)C(=O)c2cc3c(-c4ccccc4OC)cc(C4=CCCN(C(=O)CCn5ccnn5)C4)c(F)c3[nH]2)c1C` [Example I-1617], the IC50 lay in the range of 1000 to 10000 nM.

Regarding `COc1ccccc1-c1cc(C2=CCCN(C(=O)CCn3ccnn3)C2)c(F)c2[nH]c(C(=O)N(C)C[C@H](O)COc3cccc4ccccc34)cc12` [Example I-1618], the half-maximal inhibitory concentration (IC50) was 1000 to 10000 nM.

Regarding `COc1ccccc1-c1cc(C2=CCCN(C(=O)CCn3ccnn3)C2)c(F)c2[nH]c(C(=O)N(CCO)c3ccc4ccccc4n3)cc12` [Example I-1619], the 50% inhibitory concentration (IC50) lay in the range of 1000 to 10000 nM.

As to `COc1ccccc1-c1cc(C2=CCCN(C(=O)CCn3ccnn3)C2)c(F)c2[nH]c(C(=O)N(CCO)C[C@@H](C)O)cc12` [Example I-1620], the IC50 lay within 1000 to 10000 nM.

The molecule `COc1ccccc1-c1cc(C2=CCCN(C(=O)CCn3ccnn3)C2)c(F)c2[nH]c(C(=O)N(C)CC3CC3)cc12` [Example I-1621] displayed an IC50 of less than 100 nM.

In the case of `COc1ccccc1-c1cc(C2=CCCN(C(=O)CCn3ccnn3)C2)c(F)c2[nH]c(C(=O)N3CCCCC3)cc12` [Example I-1624], the half-maximal inhibitory concentration (IC50) is less than 100 nM.

Molecule `COc1ccc(S(C)(=O)=O)cc1-c1cc(C2=CCCN(C(=O)CCn3ccnn3)C2)c(F)c2[nH]c(C(=O)N(C)C)cc12` [Example I-1626] showed a half-inhibitory concentration (IC50) of less than 100 nM.

As for `CCC(O)CN1CCN(C(=O)c2cc3ccc(C4=CCCN(C(=O)CCn5ccnn5)C4)c(F)c3[nH]2)CC1` (centres unmarked) [Example I-1628], the IC50 lay in the range of 1000 to 10000 nM.

`Cc1c(C2=CCCN(C(=O)CCn3ccnn3)C2)cc2[nH]c(C(=O)N(C)C)cc2c1C` [Example I-1630] registered a half-inhibitory concentration (IC50) of less than 100 nM.

Consider `CN(C)C(=O)c1cc2c(-c3cc[nH]c(=O)c3)cc(C3=CCCN(C(=O)CCn4ccnn4)C3)c(F)c2[nH]1` [Example I-1631], for which the IC50 was less than 100 nM.

In turn, `COc1cccc(C)c1-c1cc(C2=CCCN(C(=O)CCn3ccnn3)C2)c(F)c2[nH]c(C(=O)N(C)C)cc12` [Example I-1632] returned a half-maximal inhibitory concentration (IC50) of less than 100 nM.

As to `CN(C[C@H](O)COc1cccc2ccccc12)C(=O)c1cc2ccc(C3=CCCN(C(=O)CCn4ccnn4)C3)c(F)c2[nH]1` [Example I-1633], the IC50 is 1000 to 10000 nM.

On to `O=C(CCn1ccnn1)N1CCC=C(c2ccc3cc(C(=O)N4CCN(CCCF)CC4)[nH]c3c2F)C1` [Example I-1634], for which the IC50 lay in the range of 100 to 1000 nM.

For the molecule `O=C(CCn1ccnn1)N1CCC=C(c2ccc3cc(C(=O)N(CCO)CCc4ccccc4)[nH]c3c2F)C1` [Example I-1635], the IC50 was 1000 to 10000 nM.

As for `CCn1ncc(CN(CCO)C(=O)c2cc3ccc(C4=CCCN(C(=O)CCn5ccnn5)C4)c(F)c3[nH]2)c1C` [Example I-1636], the IC50 lay in the range of 100 to 1000 nM.

In turn, `CCOc1cnccc1-c1cc(C2=CCCN(C(=O)CCn3ccnn3)C2)c(F)c2[nH]c(C(=O)N(C)C)cc12` [Example I-1638] gave an IC50 of less than 100 nM.

`CN(C)C(=O)c1cc2c(N3CCOCC3)cc(C3=CCCN(C(=O)CCn4ccnn4)C3)cc2[nH]1` [Example I-1639] displayed a half-maximal inhibitory concentration (IC50) of less than 100 nM.

Molecule `COc1ccc(OC)c(-c2cc(C3=CCCN(C(=O)CCn4ccnn4)C3)c(F)c3[nH]c(C(=O)N(C)C)cc23)c1` [Example I-1640] came in with an IC50 of less than 100 nM.

`COc1ccc(CO)cc1-c1cc(C2=CCCN(C(=O)CCn3ccnn3)C2)c(F)c2[nH]c(C(=O)N(C)C)cc12` [Example I-1641] registered an IC50 of less than 100 nM.

`COc1cccc(-c2cc(C3=CCCN(C(=O)CCn4ccnn4)C3)c(F)c3[nH]c(C(=O)N(C)C)cc23)c1` [Example I-1642] registered an IC50 of less than 100 nM.

In turn, `COc1cccnc1-c1cc(C2=CCCN(C(=O)CCn3ccnn3)C2)c(F)c2[nH]c(C(=O)N(C)C)cc12` [Example I-1643] returned an IC50 of less than 100 nM.
